The values below come from paper PMC4428439, “Anti-adaptors use distinct modes of binding to inhibit the RssB-dependent turnover of RpoS (σ^S) by ClpXP” (Frontiers in Molecular Biosciences, 2015).

The target of the experiment is T1, RssB, full-length, untagged, purified (E. coli, UniProt P0AEV1 1-337).
T1 construct: RssB (SprE), adaptor protein of ClpXP, E. coli; residues 1-337 by the printed domain limits; Monomeric and dimeric RssB were separated by preparative SEC; degradation assays used monomeric RssB; also called SprE; full-length RssB; source: E. coli, Ub-fusion system, purified (IMAC, preparative SEC)
T1 sequence (looked up): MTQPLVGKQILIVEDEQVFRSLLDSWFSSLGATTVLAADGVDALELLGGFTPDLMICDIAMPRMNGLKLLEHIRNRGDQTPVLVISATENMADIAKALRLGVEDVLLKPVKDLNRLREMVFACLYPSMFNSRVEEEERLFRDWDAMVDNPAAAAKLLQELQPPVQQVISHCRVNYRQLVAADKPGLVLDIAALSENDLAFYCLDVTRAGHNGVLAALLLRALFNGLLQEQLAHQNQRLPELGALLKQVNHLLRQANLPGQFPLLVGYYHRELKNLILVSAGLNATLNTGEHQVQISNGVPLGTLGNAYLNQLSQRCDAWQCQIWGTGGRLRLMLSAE
The experiment can be described thus: SEC; Superdex 200; σ^S preincubated with RssB (+AcP), IraD then added to the preformed complex; fractions on SDS-PAGE, σ^S quantified with GelEval; GF buffer. The settings on record: both partners purified.

B1: σ^S (RpoS), untagged, purified (natural protein)
chain: not shown
notes: RpoS (σ^S, σ^38), RNA polymerase sigma factor, E. coli; also called σ^38; SigmaS; source: E. coli, Ub-fusion system, purified (IMAC, SEC)
On to B1, for which the binding result is recorded as “binds”.
